According to the supplement of paper PMC12217912:
This is one part of the list. The full chains were built here from the parent and the listed change. Values near 0.05 are background.

B1: TEV protease; numbered along this chain (parent)
chain: MGESLFKGPRDYNPISSSICHLTNESDGHTTSLYGIGFGPFIITNKHLFRRNNGTLVVQSLHGVFKVKDTTTLQQHLVDGRDMIIIRMPKDFPPFPQKLKFREPQREERICLVTTNFQTKSMSSMVSDTSCTFPSGDGIFWKHWIQTKDGQCGSPLVSTRDGFIVGIHSASNFTNTNNYFTSVPKNFMELLTNQEAQQWVSGWRLNADSVLWGGHKVFMVKPEEPFQPVKEATQL

Variants of: B1
Assay: raw area under fraction-flipped curve 0-4 h after induction (AUC4h, not background-subtracted), DNA-recorder readout of cleavage of the substrate (dimensionless); higher = more cleavage of the substrate by the protease variant
Settings: temperature: 34 °C; time window: 0-4 h after rhamnose induction
Protocol: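 In vivo DNA recorder in E. coli TOP10(DE3) ΔrhaA at 34 °C. Each TEVp single-site mutant (parent TEVp 0) is paired with a single-site variant of the 7-mer TEVs (canonical ENLYFQ|S). The substrate sits between flexible linkers in a Bxb1-sfGFP-TEVs-SsrA fusion, so cleavage stabilises Bxb1 and speeds flipping of a recombination array, read by NGS. The value is the raw area under the fraction-flipped curve over 0-4 h after rhamnose induction (AUC4h), with ≥20 reads per time point. It is not background-subtracted; inactive controls average about 0.047.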
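Further: Bxb1 expression induced with 0.2% (w/v) L-rhamnose at OD600 near 0.5, cultures sampled hourly, flipped fraction per protease–substrate barcode pair counted by paired-end Illumina sequencing.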

Variant	area with substrate ENAYFQS	area with substrate ENCYFQS	area with substrate ENDYFQS	area with substrate ENEYFQS	area with substrate ENFYFQS	area with substrate ENHYFQS	area with substrate ENKYFQS	area with substrate ENMYFQS	area with substrate ENNYFQS	area with substrate ENPYFQS	area with substrate ENQYFQS	area with substrate ENRYFQS	area with substrate ENSYFQS	area with substrate ENTYFQS	area with substrate ENVYFQS	area with substrate ENWYFQS	area with substrate ENGYFQS	area with substrate ENIYFQS	area with substrate ENYYFQS
MGESLFKGPRDYNPISSSICHLTNESDGHTTSLYGIGFGPIIITNKHLFRRNNGTLVVQSLHGVFKVKDTTTLQQHLVDGRDMIIIRMPKDFPPFPQKLKFREPQREERICLVTTNFQTKSMSSMVSDTSCTFPSGDGIFWKHWIQTKDGQCGSPLVSTRDGFIVGIHSASNFTNTNNYFTSVPKNFMELLTNQEAQQWVSGWRLNADSVLWGGHKVFMVKPEEPFQPVKEATQL [F41I]	0.0655	0.0695	0.0553	0.0604	0.0535	0.0383	0.0382	0.0792	0.0564	0.0599	0.0507	0.0497	0.0629	0.0554	0.0719	0.0581			
MGESLFKGPRDYNPISSSICHLTNESDGHTTSLYGIGFGPFAITNKHLFRRNNGTLVVQSLHGVFKVKDTTTLQQHLVDGRDMIIIRMPKDFPPFPQKLKFREPQREERICLVTTNFQTKSMSSMVSDTSCTFPSGDGIFWKHWIQTKDGQCGSPLVSTRDGFIVGIHSASNFTNTNNYFTSVPKNFMELLTNQEAQQWVSGWRLNADSVLWGGHKVFMVKPEEPFQPVKEATQL [I42A]	0.0527		0.0506	0.0425	0.0317		0.0569	0.0188		0.0586	0.0581		0.0496	0.0556	0.0679	0.0389	0.0445	0.0394	
MGESLFKGPRDYNPISSSICHLTNESDGHTTSLYGIGFGPFRITNKHLFRRNNGTLVVQSLHGVFKVKDTTTLQQHLVDGRDMIIIRMPKDFPPFPQKLKFREPQREERICLVTTNFQTKSMSSMVSDTSCTFPSGDGIFWKHWIQTKDGQCGSPLVSTRDGFIVGIHSASNFTNTNNYFTSVPKNFMELLTNQEAQQWVSGWRLNADSVLWGGHKVFMVKPEEPFQPVKEATQL [I42R]	0.0331	0.069	0.0459	0.0497	0.0405	0.0361				0.0473	0.0357	0.0391	0.0496	0.0351	0.0453	0.0262	0.0484	0.0563	0.0456
MGESLFKGPRDYNPISSSICHLTNESDGHTTSLYGIGFGPFLITNKHLFRRNNGTLVVQSLHGVFKVKDTTTLQQHLVDGRDMIIIRMPKDFPPFPQKLKFREPQREERICLVTTNFQTKSMSSMVSDTSCTFPSGDGIFWKHWIQTKDGQCGSPLVSTRDGFIVGIHSASNFTNTNNYFTSVPKNFMELLTNQEAQQWVSGWRLNADSVLWGGHKVFMVKPEEPFQPVKEATQL [I42L]	0.0562	0.056	0.054	0.0598	0.0659	0.064			0.0549	0.0683	0.0665	0.0433		0.0589	0.0558	0.0239	0.0744		
MGESLFKGPRDYNPISSSICHLTNESDGHTTSLYGIGFGPFFITNKHLFRRNNGTLVVQSLHGVFKVKDTTTLQQHLVDGRDMIIIRMPKDFPPFPQKLKFREPQREERICLVTTNFQTKSMSSMVSDTSCTFPSGDGIFWKHWIQTKDGQCGSPLVSTRDGFIVGIHSASNFTNTNNYFTSVPKNFMELLTNQEAQQWVSGWRLNADSVLWGGHKVFMVKPEEPFQPVKEATQL [I42F]	0.0567				0.0312	0.0385	0.0499	0.0439			0.0464	0.0498	0.0537	0.0472			0.0404		
MGESLFKGPRDYNPISSSICHLTNESDGHTTSLYGIGIGPFIITNKHLFRRNNGTLVVQSLHGVFKVKDTTTLQQHLVDGRDMIIIRMPKDFPPFPQKLKFREPQREERICLVTTNFQTKSMSSMVSDTSCTFPSGDGIFWKHWIQTKDGQCGSPLVSTRDGFIVGIHSASNFTNTNNYFTSVPKNFMELLTNQEAQQWVSGWRLNADSVLWGGHKVFMVKPEEPFQPVKEATQL [F38I]	0.0663		0.0452	0.0539			0.058		0.0591			0.0578	0.0622	0.0594	0.0426				
MGESLFKGPRDYNPISSSICHLTNESDGHTTSLYGIGYGPFIITNKHLFRRNNGTLVVQSLHGVFKVKDTTTLQQHLVDGRDMIIIRMPKDFPPFPQKLKFREPQREERICLVTTNFQTKSMSSMVSDTSCTFPSGDGIFWKHWIQTKDGQCGSPLVSTRDGFIVGIHSASNFTNTNNYFTSVPKNFMELLTNQEAQQWVSGWRLNADSVLWGGHKVFMVKPEEPFQPVKEATQL [F38Y]	0.0533		0.0628	0.0588	0.054		0.0644		0.0655		0.0586	0.0418	0.0651		0.0799		0.0585		0.0732
MGESLFKGPRDYNPISSSICHLTNESDGHTTSLYGIGWGPFIITNKHLFRRNNGTLVVQSLHGVFKVKDTTTLQQHLVDGRDMIIIRMPKDFPPFPQKLKFREPQREERICLVTTNFQTKSMSSMVSDTSCTFPSGDGIFWKHWIQTKDGQCGSPLVSTRDGFIVGIHSASNFTNTNNYFTSVPKNFMELLTNQEAQQWVSGWRLNADSVLWGGHKVFMVKPEEPFQPVKEATQL [F38W]	0.069	0.0612	0.0583	0.0683		0	0.0541	0.0604	0.057	0.0261	0.0616	0.0682	0.0535	0.0551	0.0869		0.0558	0.109	0.0572
MGESLFKGPRDYNPISSSICHLTNESDGHTTSLYGIGFMPFIITNKHLFRRNNGTLVVQSLHGVFKVKDTTTLQQHLVDGRDMIIIRMPKDFPPFPQKLKFREPQREERICLVTTNFQTKSMSSMVSDTSCTFPSGDGIFWKHWIQTKDGQCGSPLVSTRDGFIVGIHSASNFTNTNNYFTSVPKNFMELLTNQEAQQWVSGWRLNADSVLWGGHKVFMVKPEEPFQPVKEATQL [G39M]	0.0401	0.0396	0.0445	0.0456	0.0426	0.0296	0.0436		0.0349	0.035	0.0388	0.0398	0.0411	0.0444	0.0415		0.036	0.0473	0.0351
MGESLFKGPRDYNPISSSICHLTNESDGHTTSLYGIGFEPFIITNKHLFRRNNGTLVVQSLHGVFKVKDTTTLQQHLVDGRDMIIIRMPKDFPPFPQKLKFREPQREERICLVTTNFQTKSMSSMVSDTSCTFPSGDGIFWKHWIQTKDGQCGSPLVSTRDGFIVGIHSASNFTNTNNYFTSVPKNFMELLTNQEAQQWVSGWRLNADSVLWGGHKVFMVKPEEPFQPVKEATQL [G39E]	0.0472	0.0475	0.0606		0.0283	0.0472	0.0442	0.0468		0.0519	0.0431	0.0375	0.0498	0.0477	0.0337		0.0419		0.0396
MGESLFKGPRDYNPISSSICHLTNESDGHTTSLYGIGFRPFIITNKHLFRRNNGTLVVQSLHGVFKVKDTTTLQQHLVDGRDMIIIRMPKDFPPFPQKLKFREPQREERICLVTTNFQTKSMSSMVSDTSCTFPSGDGIFWKHWIQTKDGQCGSPLVSTRDGFIVGIHSASNFTNTNNYFTSVPKNFMELLTNQEAQQWVSGWRLNADSVLWGGHKVFMVKPEEPFQPVKEATQL [G39R]	0.0287	0.0383	0.0541	0.0483	0.0415	0.0454			0.0478	0.046	0.0503	0.0623	0.0531	0.0446	0.0206	0.0043	0.0494		0.0394
MGESLFKGPRDYNPISSSICHLTNESDGHTTSLYGIGFIPFIITNKHLFRRNNGTLVVQSLHGVFKVKDTTTLQQHLVDGRDMIIIRMPKDFPPFPQKLKFREPQREERICLVTTNFQTKSMSSMVSDTSCTFPSGDGIFWKHWIQTKDGQCGSPLVSTRDGFIVGIHSASNFTNTNNYFTSVPKNFMELLTNQEAQQWVSGWRLNADSVLWGGHKVFMVKPEEPFQPVKEATQL [G39I]	0.0467	0.0446	0.0415	0.0455	0.0506	0.0443			0.0458	0.0343	0.0581		0.0436		0.0362		0.0297		0.0427
MGESLFKGPRDYNPISSSICHLTNESDGHTTSLYGIGFGPFIQTNKHLFRRNNGTLVVQSLHGVFKVKDTTTLQQHLVDGRDMIIIRMPKDFPPFPQKLKFREPQREERICLVTTNFQTKSMSSMVSDTSCTFPSGDGIFWKHWIQTKDGQCGSPLVSTRDGFIVGIHSASNFTNTNNYFTSVPKNFMELLTNQEAQQWVSGWRLNADSVLWGGHKVFMVKPEEPFQPVKEATQL [I43Q]	0.0468	0.0461	0.043	0.052	0.039	0.0647	0.0453	0.0414	0.0471	0.0471	0.051	0.0442	0.038	0.0524	0.0539		0.0478	0.049	0.0361
MGESLFKGPRDYNPISSSICHLTNESDGHTTSLYGIGFGPFINTNKHLFRRNNGTLVVQSLHGVFKVKDTTTLQQHLVDGRDMIIIRMPKDFPPFPQKLKFREPQREERICLVTTNFQTKSMSSMVSDTSCTFPSGDGIFWKHWIQTKDGQCGSPLVSTRDGFIVGIHSASNFTNTNNYFTSVPKNFMELLTNQEAQQWVSGWRLNADSVLWGGHKVFMVKPEEPFQPVKEATQL [I43N]	0.0324	0.0488	0.0455	0.0471	0.0466	0.0434	0.0293	0.0562	0.0454		0.0478	0.0428	0.0549	0.0481	0.0502		0.0494	0.0419	0.0498
MGESLFKGPRDYNPISSSICHLTNESDGHTTSLYGIGFGPFIATNKHLFRRNNGTLVVQSLHGVFKVKDTTTLQQHLVDGRDMIIIRMPKDFPPFPQKLKFREPQREERICLVTTNFQTKSMSSMVSDTSCTFPSGDGIFWKHWIQTKDGQCGSPLVSTRDGFIVGIHSASNFTNTNNYFTSVPKNFMELLTNQEAQQWVSGWRLNADSVLWGGHKVFMVKPEEPFQPVKEATQL [I43A]	0.0547	0.0785	0.0618	0.0661	0.0569	0.0919	0.0596	0.06	0.0623	0.036	0.0634	0.0486	0.0642	0.0493	0.0691	0.0535	0.0555		0.0644
MGESLFKGPRDYNPISSSICHLTNESDGHTTSLYGIGFGPFILTNKHLFRRNNGTLVVQSLHGVFKVKDTTTLQQHLVDGRDMIIIRMPKDFPPFPQKLKFREPQREERICLVTTNFQTKSMSSMVSDTSCTFPSGDGIFWKHWIQTKDGQCGSPLVSTRDGFIVGIHSASNFTNTNNYFTSVPKNFMELLTNQEAQQWVSGWRLNADSVLWGGHKVFMVKPEEPFQPVKEATQL [I43L]	0.0619	0.0708	0.0563		0.0586	0.0563	0.0619		0.0651	0.041	0.0609	0.0507	0.0728		0.0692	0.053	0.0624	0.104	0.0573
MGESLFKGPRDYNPISSSICHLTNESDGHTTSLYGIGFGPFIETNKHLFRRNNGTLVVQSLHGVFKVKDTTTLQQHLVDGRDMIIIRMPKDFPPFPQKLKFREPQREERICLVTTNFQTKSMSSMVSDTSCTFPSGDGIFWKHWIQTKDGQCGSPLVSTRDGFIVGIHSASNFTNTNNYFTSVPKNFMELLTNQEAQQWVSGWRLNADSVLWGGHKVFMVKPEEPFQPVKEATQL [I43E]	0.0428	0.0403	0.0553	0.043	0.0474	0.0372	0.0394		0.0473	0.06	0.0521	0.0481	0.0466	0.0256	0.0476				
